# Screen size: about 420,000 compounds; about 64,000 (15%) were called active. Inconclusive means that the source gave no clear call. Such entries were picked first, then a sample of the others. The call rests on the fitted dose curve; in most records, active means well fitted inhibition curve with a large enough effect; inconclusive means small, poorly fitted or top-dose-only effect; inactive means flat fitted curve, though single readings scatter. Potencies of inconclusive entries are left out as doubtful fits.
# Experiment: qHTS for Inhibitors of human tyrosyl-DNA phosphodiesterase 1 (TDP1): qHTS in cells in absence of CPT; further: nearly all actives have a fitted effect of over 55% in size
# Settings: DT40 Tdp1-/- hTDP1 cells, no CPT, ATP luminescence, 48 h; activity change, negative = growth inhibition: at 46.2 µM (top of the series) unless noted
# Summary of the method: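 A cellular qHTS used chicken DT40 cells lacking endogenous Tdp1 but carrying stably transfected human TDP1. Compounds were applied without camptothecin, and cell growth kinetics were judged by ATP-dependent luminescence after ≥48 hr.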
# On the % scale 0 is the no-effect control and ±100 the full control effect; potency means the concentration at half of the fitted maximal effect; tags describe the fitted curve by direction and shape.
SMILES,Potency,"activity change, negative = growth inhibition"
COc1ccc(CCN2C(=O)N(c3cccc(C)c3)C(=O)C2CC(=O)Nc2ccccc2)cc1OC (stereo unspecified),"inconclusive [inhibitor, single point]",–
Clc1ccc(CCNc2nc3cc(Cl)c(Cl)cc3n3cnnc23)cc1,"inconclusive [inhibitor, single point]",–
CCN(CC)S(=O)(=O)c1ccc(NN=c2c(=O)c3ccccc3c2=O)cc1,–,inactive: 0.0688%
O=C(NNC(=S)Nc1ccccc1Cl)c1ccncc1,–,inactive: 0.168%
Cc1ccc(C)c(NC(c2ccccc2)c2nnc(-c3ccccc3F)o2)c1 (stereo unspecified),"inconclusive [inhibitor, single point]",–
Cc1cccc2sc(N(CCCN(C)C)C(=O)CCc3ccccc3)nc12,"inconclusive [inhibitor, single point]",–
Cc1ccc2nc(SCCC(=O)O)cc(C)c2c1,–,inactive: 0.575%
CC1CCCCC1NC(=O)CN(C)S(=O)(=O)c1cccc2cccnc12 (stereo unspecified),"inconclusive [inhibitor, partial curve]",–
Nc1cc2c(cc1Br)-c1ccc(F)cc1C2O (stereo unspecified),–,inactive: -17.9%
Cc1ccccc1Cn1c(-c2cncs2)nc2ccccc21,"inconclusive [inhibitor, partial curve]",–
Cc1ccc(NC(=O)CCNC(=O)c2ccc(Br)cc2)nc1,–,inactive: 10.9%
CC(=O)c1ccc(OCc2cc(C(=O)N3CCCCC3c3cccnc3)no2)cc1 (stereo unspecified),active: 18.4 µM,–
Cc1cccc(OCC(=O)Nc2cccc(C(=O)NCC(C)C)c2)c1,"inconclusive [inhibitor, single point]",–
COc1ccc(-c2nnc(SCC(=O)N3CCC(C)CC3)o2)cc1,"inconclusive [inhibitor, single point]",–
Cc1cccc(-c2noc(CSc3ccccc3)n2)c1,–,inactive: -6.21%
CCNc1ncc2nc(CCc3ccccc3)c(=O)n(Cc3ccc(F)cc3)c2n1,–,inactive: 0.514%
COc1ccc(C(=O)N2CCOC2CNC(=O)C(=O)NCc2ccc(F)cc2)cc1 (stereo unspecified),–,inactive: 1.83%
CCOC(=O)C1(Cc2ccccc2)CCN(CC2CC=CCC2)CC1 (stereo unspecified),"inconclusive [inhibitor, single point]",–
CCOc1ccc(NC(=O)c2cccc(NC(C)=O)c2)cc1S(=O)(=O)N1CCCC1,"inconclusive [inhibitor, partial curve, poor fit]",–
COc1cccc(C(=O)Nc2ccc(N3CCN(C(=O)c4cccs4)CC3)cc2)c1,active: 4.61 µM,–
Cc1cc(C(=O)O/N=C(\N)c2ccncc2)ccc1[N+](=O)[O-],–,inconclusive: -34.5% [inhibitor]

# From PubChem BioAssay AID686978 (National Center for Advancing Translational Sciences (NCATS), 2013)
